Test results as given in PubChem BioAssay AID2675 (National Center for Advancing Translational Sciences (NCATS), 2010).
Out of some 280,000 compounds screened, about 100 (0.036%) were called active. Inconclusive results, whose numbers are uncertain, are shown with a selection of clear calls. Calls follow the shape of the dose curve; as a rule, active = well fitted inhibition curve with a large enough effect in the signal ratio, with a control signal flat (not every such curve was filed as active); inconclusive = small, poorly fitted or top-dose-only effect, or effect the other way, or a change in a side signal; inactive = no such curve, though single readings can be large or run the other way; the % refers to the signal ratio. Where the call is inconclusive, the potency comes from a doubtful curve fit. “Side channel” marks fits to a control or component signal instead of the main read-out.

Target: Muscleblind-like protein 1 (Homo sapiens) (UniProt Q9NR56)
Sequence of UniProt Q9NR56 (Q9NR56 whole entry, looked up): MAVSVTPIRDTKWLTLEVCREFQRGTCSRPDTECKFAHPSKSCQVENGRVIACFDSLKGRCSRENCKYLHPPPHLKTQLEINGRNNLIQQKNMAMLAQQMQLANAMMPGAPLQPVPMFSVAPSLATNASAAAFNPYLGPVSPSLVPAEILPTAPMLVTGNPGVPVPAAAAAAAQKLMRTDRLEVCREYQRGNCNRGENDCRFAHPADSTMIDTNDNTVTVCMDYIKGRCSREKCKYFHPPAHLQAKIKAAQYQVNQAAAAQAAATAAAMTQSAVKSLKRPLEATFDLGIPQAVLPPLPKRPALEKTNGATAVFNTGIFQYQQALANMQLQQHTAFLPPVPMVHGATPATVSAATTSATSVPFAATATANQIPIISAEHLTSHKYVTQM
Test: qHTS Assay for Inhibitors of MBNL1-poly(CUG) RNA binding
Conditions: TR-FRET MBNL1-His/biotin-(CUG)12 binding, 665/545 ratio; activity change, negative = inhibition: at 57.5 µM (top of the series)
In short: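 Compounds (final 92 nM to 58 uM) are added to His-tagged MBNL1 and biotin-(CUG)12, then terbium anti-His antibody and streptavidin-XL665 (5 nM final). After 60 min at room temperature, the 665/545 nm ratio is read.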
% is scaled to controls: 0 for no effect and ±100 for the full control effect; potency is read from the fitted curve at half-maximal effect; tags tell the direction and shape of the fitted curve or compound fluorescence and quenching.

Row | Compound | Potency | activity change, negative = inhibition
1 | O=c1[nH]c2ccc(NS(=O)(=O)c3ccc([N+](=O)[O-])cc3)cc2[nH]1 | inconclusive: 14.1 µM [quencher, partial curve] | 
2 | COc1ccc(-n2nc(C(=O)NCC(=O)N3CCN(C)CC3)c3ccccc3c2=O)cc1OC | inconclusive: 28.2 µM [quencher, side channel, single point] | 
3 | COc1ccc(CNC(=O)COc2cc3c(c4oc(=O)cc(C)c24)CCC(C)(C)O3)cc1 |  | inactive: -4.83%
4 | CS(=O)(=O)Nc1cccc(C2=NN(C(=O)CCC(=O)O)C(c3cccs3)C2)c1 (centres undefined) | inconclusive: 35.5 µM [quencher, side channel, single point] | 
5 | O=C1C(=O)c2ccccc2C([O-])=C1[n+]1ccccc1 | inconclusive: 11.2 µM [quencher, partial curve] | 
6 | C=CCNC(=O)c1c[nH]c2ccc(S(=O)(=O)N(C)c3ccc(OCC)cc3)cc2c1=O |  | inactive: -1.09%
7 | CCOCCCNC(=O)c1ccccc1SCC | inconclusive: 25.1 µM [quencher, side channel, single point] | 
8 | CCCOc1ccc(C(CC(=O)O)NC(=O)c2sc3ccccc3c2Cl)cc1 (centres undefined) |  | inactive: 31%
9 | CO[C@H]1C=CO[C@@]2(C)Oc3c(C)c(O)c4c(O)c(c5c(nc6cc(C)ccn65)c4c3C2=O)NC(=O)C(C)=CC=C[C@H](C)[C@H](O)[C@@H](C)[C@@H](O)[C@@H](C)[C@H](OC(C)=O)[C@@H]1C | inconclusive: 25.1 µM [quencher, side channel, partial curve] | 
10 | COc1ccc(C2/C(=C(/O)c3ccc(Br)cc3)C(=O)C(=O)N2C)cc1OC (centres undefined) | inconclusive: 20 µM [quencher, partial curve] | 
11 | Cc1ccccc1-n1c(Cn2c(=O)sc3ccccc32)nnc1SCC(=O)Nc1nccs1 | inconclusive: 0.0891 µM [fluorescent, side channel, full curve] | 
12 | Cn1nnc(NC(=O)c2ccc3ccccc3c2)n1 | inconclusive: 31.6 µM [quencher, side channel, single point] | 
13 | O=C(OCC(=O)N1CCc2ccccc2C1)c1ccc(N2CCOCC2)c([N+](=O)[O-])c1 | inconclusive: 22.4 µM [activator, partial curve] | 
14 | O=[N+]([O-])c1ccc(C(=S)N2CCN(c3ccc(F)cc3)CC2)cc1 | inconclusive: 15.8 µM [quencher, side channel, partial curve] | 
15 | Cc1occc1-c1nnc(SCC(=O)N2CCOCC2)n1CC(C)C | inconclusive: 50.1 µM [inhibitor, single point] | 
16 | CCN1C(=O)CC(N2CCN(c3ccc(C(=O)c4ccccc4)cc3)CC2)C1=O (centres undefined) | inconclusive: 28.2 µM [quencher, side channel, partial curve] | 
17 | Cc1ccc(CN2CCC(CNS(=O)(=O)c3ccc(-c4ccc(=O)[nH]n4)s3)CC2)cc1 | inconclusive: 10 µM [quencher, side channel, partial curve] | 
18 | O=C1C(Cl)=C(NCC2CCCO2)C(=O)N1CCc1ccccc1 (centres undefined) | inconclusive: 22.4 µM [quencher, side channel, partial curve] | 
19 | O=C1CC(O)(c2ccccc2)C(c2ccccc2)=C1c1ccccc1 (centres undefined) | inconclusive: 2.82 µM [quencher, side channel, single point] | 
20 | CN1C(=O)C(O)(CC(=O)c2ccncc2)c2ccccc21 (centres undefined) | inconclusive: 28.2 µM [quencher, single point] | 

Row | Compound | Potency | activity change, negative = inhibition
21 | COc1ccccc1NC(=O)Cn1c(CCC(=O)O)ccc1-c1ccccc1 |  | inactive: 2.68%
22 | CNC(=O)/C(C#N)=C/c1c(N2CC(C)OC(C)C2)nc2ccccn2c1=O (centres undefined) | inconclusive: 11.2 µM [quencher, side channel, partial curve] | 
23 | COC(=O)c1cc(S(=O)(=O)N2CCOCC2)ccc1Sc1ccccc1N |  | inactive: -13.7%
24 | CC1(OC(=O)CCc2ccccc2)C(=O)C=C2C=C(c3ccc(C#N)cc3)N(C3CCCC3)C=C2C1=O (centres undefined) | inconclusive: 25.1 µM [quencher, side channel, single point] | 
25 | O=C(Nc1cccc2ccccc12)/C(Cl)=C/c1ccccc1 | inconclusive: 31.6 µM [quencher, side channel, single point] | 
26 | Cc1cc(=O)[nH]c(N/N=C/C=C/c2ccccc2)n1 | inconclusive: 15.8 µM [quencher, partial curve] | 
27 | C=C1c2cc3c(cc2NC(=S)N1Cc1ccccc1)OCO3 | inconclusive: 15.8 µM [quencher, side channel, partial curve] | 
28 | FC(F)Oc1ccc(NC(=S)NCc2cccnc2)cc1 |  | inactive: -3.69%
29 | O=C(Nc1nnc(SCC(=O)N2CCCc3ccccc32)s1)c1ccccc1 | inconclusive: 35.5 µM [fluorescent, side channel, partial curve] | 
30 | COC(=O)c1ccc2c(=O)n(CCCCCC(=O)O)c(=O)[nH]c2c1 |  | inactive: 7.59%
31 | C=CCSC1=N/C(=C\c2cccnc2)C(=O)N1c1ccc(OC)cc1 | inconclusive: 25.1 µM [quencher, side channel, partial curve] | 
32 | C=CCOc1ccc(CNc2ccc3[nH]c(=O)[nH]c3c2)cc1 | inconclusive: 10 µM [inhibitor, single point] | 
33 | COc1ccc2[nH]c(=O)c(C(c3nnnn3CC3CCCO3)N3CCc4ccccc4C3)cc2c1 (centres undefined) | inconclusive: 20 µM [quencher, side channel, partial curve] | 
34 | CC(=O)Nc1ccc(N2N=C(C)C(N=Nc3ccccc3)C2=O)cc1 (centres undefined) | inconclusive: 3.16 µM [quencher, side channel, partial curve] | 
35 | CN(c1ccccc1)S(=O)(=O)c1ccc(NC(=O)c2nc(S(C)(=O)=O)ncc2Cl)cc1 |  | inactive: -3.09%
36 | OCCCNC(=S)Nc1ccc2nccnc2c1 | inconclusive: 20 µM [quencher, side channel, partial curve] | 
37 | N#CC1=C(N)Oc2c(oc(CO)cc2=O)C1c1cccs1 (centres undefined) | inconclusive: 22.4 µM [quencher, side channel, partial curve] | 
38 | CCCC(=O)NCCc1nc2cc([N+](=O)[O-])ccc2n1C | inconclusive: 8.91 µM [quencher, side channel, partial curve] | 
39 | O=[N+]([O-])c1ccc(/C=N/n2c(COc3ccccc3)n[nH]c2=S)cc1 | inconclusive: 15.8 µM [quencher, side channel, partial curve] | 
40 | CNc1ncc(C(=O)c2ccccc2)s1 | inconclusive: 28.2 µM [quencher, side channel, partial curve] | 

Row | Compound | Potency | activity change, negative = inhibition
41 | Cc1ccc(Nc2nc(NCc3ccco3)c3ccccc3n2)cc1 |  | inactive: -6.5%
42 | Cc1ccccc1OCC(O)Cn1c2ccccc2c2ccccc21 (centres undefined) | inconclusive: 39.8 µM [fluorescent, side channel, single point] | 
43 | CN=c1scc(-c2ccc([N+](=O)[O-])cc2)n1/N=C/c1ccco1 | inconclusive: 8.91 µM [quencher, side channel, partial curve] | 
44 | O=C(CSc1nc2ccccc2c(=O)n1Cc1ccco1)N1CCN(c2ccccc2)CC1 |  | inactive: -6.85%
45 | CC1CCN(C(=O)CSc2nnc(-c3ccncc3)n2C)CC1 | inconclusive: 79.4 µM [inhibitor, partial curve, poor fit] | 
46 | COc1ccc(-c2ocnc2C(=O)N2CCN(C(=O)C(c3ccccc3)c3ccccc3)CC2)cc1 |  | inactive: -3.15%
47 | CO/N=C/c1ccc(N2CCN(C(=O)c3cccc(Cl)c3)CC2)c([N+](=O)[O-])c1 | inconclusive: 31.6 µM [quencher, partial curve] | 
48 | CC(C)NC(=S)N/N=C1\CCCCc2ccccc21 | inconclusive: 28.2 µM [fluorescent, side channel, single point] | 
49 | Cc1ccc(C(=O)N2CCN(S(=O)(=O)c3ccc(C)c([N+](=O)[O-])c3)C2)cc1 | inconclusive: 25.1 µM [quencher, single point] | 
50 | CC1(C)Cc2c(sc(NC(=O)c3ccc(C(=O)c4ccccc4)cc3)c2C(N)=O)C(C)(C)N1 | inconclusive: 20 µM [quencher, side channel, partial curve] | 
51 | O=C(C1CCC(CNS(=O)(=O)c2cccc3nsnc23)CC1)N1CCN(c2ccccn2)CC1 (centres undefined) | inconclusive: 22.4 µM [quencher, side channel, partial curve] | 
52 | CCC(CNc1cc(OC)cc2cccnc12)NC1CCCCC1 (centres undefined) | inconclusive: 14.1 µM [quencher, side channel, partial curve] | 
53 | Cc1cc(NC(=O)CCN2CCN(C/C=C/c3ccccc3)CC2)ccc1Br |  | inactive: -2.95%
54 | Cc1ccccc1COC(=O)c1cc([N+](=O)[O-])ccc1N1CCOCC1 | inconclusive: 15.8 µM [quencher, side channel, partial curve] | 
55 | CCOC(=O)/C(C#N)=C/c1ccc(SC)cc1 | inconclusive: 22.4 µM [quencher, side channel, partial curve] | 
56 | c1cc2c3c(cccc3c1)C(N1CCOCC1)=N2 | inconclusive: 28.2 µM [quencher, side channel, single point] | 
57 | O=C(OC1CCOC1=O)c1cc(Cl)ccc1[N+](=O)[O-] (centres undefined) | inconclusive: 17.8 µM [quencher, side channel, partial curve] | 
58 | CCOC(=O)N1CCC(Nc2c(-c3ccc(C)cc3)c(=O)c2=O)CC1 | inconclusive: 63.1 µM [inhibitor, single point] | 
59 | Cc1ccc(S(=O)(=O)NCc2ccncc2)cc1C |  | inactive: 7.6%
